Source: PubChem BioAssay AID1745853 (National Center for Advancing Translational Sciences (NCATS), 2022)
This is one part of the list. Shown are side measurements of this screen, not its main read-out; they come without a call.

How the values were obtained:
Test in all cases: Primary Screen for Target Class Profiling of Small Molecule Inhibitors of Methyltransferases
[1] = molecular target: Glycine N-methyltransferase (Homo sapiens) (UniProt Q14749); settings: purified enzyme, MTase-Glo SAH luminescence; measured here: GNMT inhibition; at 40 µM; stronger effect = lower value
Method in brief: (§1)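 Each enzyme was reacted with SAM and its substrate, with compounds tested once at 40 uM; SAH formed was read by MTase-Glo luminescence.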

[2] = molecular target: Guanidinoacetate N-methyltransferase (Homo sapiens) (UniProt Q14353); settings: purified enzyme, MTase-Glo SAH luminescence; measured here: GAMT inhibition; at 40 µM; stronger effect = lower value
Method in brief: as §1

[3] = molecular target: Histamine N-methyltransferase (Homo sapiens) (UniProt P50135); settings: purified enzyme, MTase-Glo SAH luminescence; measured here: HNMT inhibition; at 40 µM; stronger effect = lower value
Method in brief: as §1

[4] = molecular target: Nicotinamide N-methyltransferase (Homo sapiens) (UniProt P40261); settings: purified enzyme, MTase-Glo SAH luminescence; measured here: NNMT inhibition; at 40 µM; stronger effect = lower value
Method in brief: as §1

[5] = molecular target: Phenylethanolamine N-methyltransferase (Homo sapiens) (UniProt P11086); settings: purified enzyme, MTase-Glo SAH luminescence; measured here: PNMT inhibition; at 40 µM; stronger effect = lower value
Method in brief: as §1
% is scaled to controls: 0 for no effect and ±100 for the full control effect.

SMILES | activity change, negative = inhibition [1] [%] | activity change, negative = inhibition [2] [%] | activity change, negative = inhibition [3] [%] | activity change, negative = inhibition [4] [%] | activity change, negative = inhibition [5] [%]
COc1ccccc1N1C(=O)c2cc3ccccc3n2CC1(C)C(=O)NCCC(C)C (stereo not drawn) | 6.27 | 1.48 | 1.79 | 6.4 | -0.546
O=C(c1ccccc1OCC1CCCNC1)N1CCOCC1 (stereo not drawn) | -3.7 | -5.61 | -0.682 | -4.58 | -1.35
COc1cc2ncnc(Nc3cccc(O)c3)c2cc1OC | -2.21 | 2.43 | 1.3 | -20.6 | -1.16
CCCSCCCN1C(=O)c2cc(-c3ccc(CC)cc3)nn2CC1(C)C(=O)NC1CCCCC1 (stereo not drawn) | 0.568 | 5.96 | 2.02 | 2.02 | -3.24
CCn1ccnc1CNC(=O)c1cc(OC)ccc1OC1CCN(C(=O)C2CC2)CC1 | -1.22 | 0.256 | -0.163 | 2.92 | 3.95
Clc1ccc(CN[C@H]2CCN(c3ncc(Br)cn3)C2)c(Cl)c1 | 0.415 | 7.94 | 11 | -18 | -0.363
CSc1ccc(CNC(=O)c2cc3n(n2)CC(C)(C(=O)NC2CCCCCC2)N(C)C3=O)cc1 (stereo not drawn) | -3.65 | -1.94 | 0.955 | -2.6 | -9.74
CC1(C(=O)NCc2ccc(F)cc2)Cn2cnc(C(=O)Nc3cc(F)ccc3F)c2C(=O)N1C1CC1 (stereo not drawn) | -7.45 | 2.56 | -4.48 | -7.82 | -3.94
CC1CCN(S(=O)(=O)c2ccc3c(ccn3CC(=O)NCc3cccs3)c2)CC1 | 5.67 | 0.277 | 6.97 | 0.996 | -9.64
CCCn1c(=O)c2cc(F)ccc2n2c(SCC(=O)NCc3ccccc3Cl)nnc12 | -1.96 | 0.153 | 7.87 | -4.51 | 1.9
CC1=C(C(=O)OC2OC(COC3OC(CO)C(O)C(O)C3O)C(O)C(O)C2O)C(C)(C)CCC1 (stereo not drawn) | 2.93 | 2.36 | 5.61 | -11.2 | -5.41
O=C(CCc1nnc2n(CCc3ccccc3)c(=O)c3ccccc3n12)NC1CCN(Cc2ccccc2)CC1 | -3.59 | 0 | -19.4 | 7.61 | -3.28
NC1=N[C@@]2(c3cc(NC(=O)c4ccc(F)cn4)ccc3F)COC[C@H]2CS1 | – | -4.17 | – | -15.6 | -9.47
CC1c2cccn2CCN1C(=O)Nc1ccc(F)cc1F (stereo not drawn) | -7.04 | 2 | -7.22 | -19.4 | -6.68
C/C(=C\CC[C@@H](C)[C@H]1CC(O)[C@@]2(C)C3CC[C@H]4C(C)(C)[C@@H](OC5OCC(O)C(O)C5OC5OC(CO)C(O)C(O)C5O)CC[C@@]45C[C@@]35CC(O)[C@]12C)C(=O)O (stereo partly drawn) | -0.546 | -8.71 | 1.17 | -20.2 | 1.24
O=C(NCc1ccc2c(c1)OCO2)c1n[nH]nc1Nc1ccc(Cl)cc1 | 0.309 | 0 | 7.82 | 0.07 | 5.31
CCOc1ncc(S(=O)(=O)N2CCN(CC)CC2)cc1-c1nc2c(CC)n(CCOC)nc2c(=O)[nH]1 | 4.49 | 5.05 | 11 | -14.7 | 0.815
